Article PMC4336329 (PLoS ONE, 2015)
Out of some 310,000 compounds screened, about 2,200 (0.71%) showed an effect of 50% or more. Effects have a minus sign here. This is one part of the list.

biological target: human ether-à-go-go-related gene (hERG) potassium channel (human, UniProt Q12809); experiment: primary screen, population patch clamp on CHO cells stably expressing hERG
Sequence (Q12809 whole entry, looked up): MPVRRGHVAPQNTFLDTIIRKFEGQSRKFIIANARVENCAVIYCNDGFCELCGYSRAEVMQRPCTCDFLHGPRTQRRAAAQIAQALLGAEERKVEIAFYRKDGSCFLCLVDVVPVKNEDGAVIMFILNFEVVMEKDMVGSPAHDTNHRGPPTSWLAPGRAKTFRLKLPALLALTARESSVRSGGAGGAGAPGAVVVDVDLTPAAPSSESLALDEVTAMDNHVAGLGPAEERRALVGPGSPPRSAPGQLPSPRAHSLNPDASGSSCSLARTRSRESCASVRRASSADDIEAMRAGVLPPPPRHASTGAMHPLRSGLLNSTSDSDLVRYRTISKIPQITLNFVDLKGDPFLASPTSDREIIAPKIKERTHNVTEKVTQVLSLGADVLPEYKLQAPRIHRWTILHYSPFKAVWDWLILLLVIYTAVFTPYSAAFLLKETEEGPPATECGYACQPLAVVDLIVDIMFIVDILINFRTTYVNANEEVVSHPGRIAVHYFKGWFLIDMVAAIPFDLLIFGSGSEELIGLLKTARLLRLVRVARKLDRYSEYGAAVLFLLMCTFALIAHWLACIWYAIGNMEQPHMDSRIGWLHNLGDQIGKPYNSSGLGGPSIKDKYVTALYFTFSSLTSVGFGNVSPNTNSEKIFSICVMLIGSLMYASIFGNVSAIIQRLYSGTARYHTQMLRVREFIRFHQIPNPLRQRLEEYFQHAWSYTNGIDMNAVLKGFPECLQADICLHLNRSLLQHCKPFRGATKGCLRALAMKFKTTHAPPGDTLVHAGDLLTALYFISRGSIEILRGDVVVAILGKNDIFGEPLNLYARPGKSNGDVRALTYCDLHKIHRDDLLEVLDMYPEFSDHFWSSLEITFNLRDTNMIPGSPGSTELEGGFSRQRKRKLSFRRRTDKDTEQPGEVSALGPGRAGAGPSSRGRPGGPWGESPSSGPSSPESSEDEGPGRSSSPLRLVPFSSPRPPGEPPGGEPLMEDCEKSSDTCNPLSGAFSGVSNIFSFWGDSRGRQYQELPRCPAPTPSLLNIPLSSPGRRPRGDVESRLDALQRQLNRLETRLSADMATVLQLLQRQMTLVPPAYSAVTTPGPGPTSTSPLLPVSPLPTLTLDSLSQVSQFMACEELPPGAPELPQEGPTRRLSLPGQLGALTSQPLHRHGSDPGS

| SMILES | hERG current change (%, negative = inhibition) at 1uM |
| --- | --- |
| C/C(=N/N1CCN(Cc2ccccc2)CC1)c1ccc(Br)cc1 | 7.67% |
| CC1CCc2cc(F)ccc2N1S(=O)(=O)c1ccc(Cl)nc1 (stereo not shown) | 12% |
| O=C(Nc1nc(=O)c2ccccc2s1)c1ccc(F)cc1 | 15.6% |
| CCN(CC)CCN1C(=O)c2ccccc2NC1c1ccc(C)cc1 (stereo not shown) | -48.3% |
| COc1ccc(NC(=O)CCNS(=O)(=O)c2ccc3c(c2)c(=O)n(C)c(=O)n3C)cc1 | 1.01% |
| O=C(c1c(F)cccc1F)N1CCN(CCOc2ccccc2)CC1 | 8.41% |
| CCOC(=O)C1(CCCc2ccccc2)CCN(C(=O)c2cnc(C)cn2)CC1 | -1.76% |
| COc1ccc(OCc2ccc(C(=O)NN)cc2)cc1 | -2.28% |
| O=C(Cn1c(=O)n(-c2cccc(Cl)c2)c(=O)n1CC(=O)N1CCCCC1)N1CCCCC1 | 11.2% |
| O=C(NC(=S)Nc1ccccc1)c1cncc(C#Cc2ccccc2)c1 | 12.8% |
| C/C(=N/NC(=O)c1cc(C)[nH]n1)c1ccncc1 | 8.47% |
| C=CCn1c(Sc2nncn2C)nc2c1c(=O)[nH]c(=O)n2C | 5.52% |
| COc1cccc(NC(=S)N2CCCC2c2ccc(OC)c(OC)c2)c1 (stereo not shown) | 4.25% |
| COc1ccc(C(=O)OCC(=O)NCc2ccc3c(c2)OCO3)cc1[N+](=O)[O-] | 15.6% |
| C/C(=N/NC(=O)c1ccc(Br)s1)c1cccnc1 | -1.16% |
| CCN(CC(=O)Nc1ccc2c(c1)OCCO2)c1nc(-c2cccnc2)nc2ccccc12 | -0.643% |
| CN(C)C1CCN(C(=O)c2cccc(OC3CCN(S(=O)(=O)N(C)C)CC3)c2)C1 (stereo not shown) | 5.09% |
| CCc1ccc(NC(=O)Nc2ccc3c(c2)N(C)C(=O)CS3)cc1 | 8.46% |
| c1ccc(-c2csc(-c3ccncc3)n2)cc1 | -11.9% |
| O=S(=O)(Nc1nc2ccccc2nc1NCc1ccco1)c1ccccc1 | 6.47% |
| COc1ccccc1CNC(=O)Cn1ccc2cc(S(=O)(=O)N3CCCC3)ccc21 | 11.7% |
| Cc1cc2oc3c(c(=O)c2cc1C)C(c1ccc(F)cc1)N(CCCN1CCOCC1)C3=O (stereo not shown) | 0.651% |

| SMILES | hERG current change (%, negative = inhibition) at 1uM |
| --- | --- |
| Cl.O=[N+]([O-])c1ccc(OCC(O)CNC2CCCC2)cc1 (stereo not shown) | -30.3% |
| Cc1ccccc1CN1[C@@H](CC2CCCCC2)COCCS1(=O)=O | 0.9% |
| Cc1cc(C)n(-c2ccc(F)cc2CN2CCN(C3CCCC3)C(CCO)C2)n1 (stereo not shown) | -1.97% |
| COc1ccc(N/C(N)=N/c2nc(C)cc(=O)[nH]2)cc1 | 11.4% |
| CCC(CO)NC1=C([N+](=O)[O-])C(=O)CC(C)(C)C1 (stereo not shown) | 10.9% |
| Cc1ccc(NC(=S)NC(=O)c2ccc(-c3ccccc3)cc2)cc1 | -3.73% |
| CCCCn1c(CN2CCN(C(=O)OCC)CC2)nc2c1c(=O)[nH]c(=O)n2C | 12.3% |
| Cc1ccc(-c2ccc(CCC(=O)O)n2-c2ccc(C(=O)O)cc2)cc1 | 5.44% |
| CCCNC(=S)N(Cc1cc2cc(C)ccc2n2nnnc12)CC(C)(C)CN(C)C | 12.8% |
| Cc1ccccc1C(=O)N1c2ccccc2OCC1C(C)(C)C (stereo not shown) | 13.5% |
| Cn1nnnc1SCCNCc1ccccc1OCc1ccccc1 | 15.5% |
| CCOC(=O)CNC(=O)c1cc(-c2ccc3c(c2)OCCO3)oc1C | -11.7% |
| CCO.COc1ccc(CNc2nc3ccccc3n2Cc2ccc(Cl)cc2)cc1OC | 7.55% |
| O=C(c1cc(COc2ccc(F)cc2F)on1)N1C[C@H]2CC[C@H]1C2 | 7.23% |
| CCN(c1ccccc1)S(=O)(=O)c1ccc(OC)c(NC(=O)C2CC2)c1 | -4.81% |
| BrC(=C\c1ccccc1)/C=N/N1CCN(c2ccccc2)CC1 | 4.74% |
| CCOc1cc(N2CCOCC2)c(OCC)cc1NC(=O)COc1ccc2ccc(=O)oc2c1 | 7.45% |
| COc1ccc(S(=O)(=O)Nc2cc3[nH]c(=O)oc3cc2C)cc1 | 14.2% |
| C=CCn1c(SCc2csc(C)n2)nc2scc(-c3ccc(C)o3)c2c1=O | -3.09% |
| C=CCN1C(=O)c2ccccc2Sc2ccc(C(=O)NCC(OC)OC)cc21 | 21.9% |
| CC(c1ccccn1)N(Cc1ccco1)C(=S)Nc1cccc(F)c1 (stereo not shown) | -2.03% |
| Cc1ccc(SCCNC(=S)Nc2cc(C)cc(C)c2)cc1 | 4.28% |

| SMILES | hERG current change (%, negative = inhibition) at 1uM |
| --- | --- |
| CCOc1cc(-c2noc(-c3ccncc3)n2)cc(Br)c1OC | 8.7% |
| Cc1csc(NC(=O)c2ccc(C(=O)Nc3nc(C)cs3)cc2)n1 | 2.72% |
| CN(C)S(=O)(=O)c1ccc(C(=O)OCCn2cnc3c2c(=O)n(C)c(=O)n3C)cc1 | 8.9% |
| O=C1OCCC1Sc1nnnn1-c1ccc(Cl)cc1 (stereo not shown) | 4.89% |
| CCOc1ccc2nc(SCc3ccc(OC)cc3)sc2c1 | 14% |
| CCN(C(=O)c1ccc(NC(=O)c2ccco2)cc1)c1ccccc1 | 1.24% |
| O=S(=O)(Cc1ccccc1)N(O)c1ccccc1 | 11.1% |
| Cn1c(=O)c2c(nc(N3CCN(c4ccc([N+](=O)[O-])cc4)CC3)n2C)n(C)c1=O | -81.7% |
| Nc1cc(=O)nc(SCC(=O)N2CCN(c3ccccc3)CC2)n1-c1ccccc1 | 7.29% |
| Cn1cc([N+](=O)[O-])c(C(=O)Nc2nccs2)n1 | 8.81% |
| CS(=O)(=O)Nc1cccc(C2=NN(C(=O)c3ccccc3)C(c3cccs3)C2)c1 (stereo not shown) | 17.3% |
| COCCN(CC(=O)Nc1cccc(C)c1C)C(=O)c1cc(S(=O)(=O)N2CCCC2)ccc1C | 11.1% |
| CCOC(=O)Cn1c(=O)oc2cc(S(=O)(=O)NCCc3ccc(OCC)c(OCC)c3)ccc21 | -5.14% |
| CN(C)CCCOC(=O)c1ccc(Cl)cc1Cl.Cl | -7.49% |
| CC(Oc1cccc(Cl)c1)C(=O)NC1CC(C)(C)NC(C)(C)C1 (stereo not shown) | 9.81% |
| CC(C)(C)c1ccc(/C=C/C(=O)N2CCOCC2)cc1 | 13.4% |
| O=C(OC(C(=O)NCc1ccc2c(c1)OCO2)c1ccc(Cl)cc1)c1ccco1 (stereo not shown) | -17.3% |
| CCOC(=O)N1CCN(C(=S)NC(=O)c2ccnn2C)CC1 | 15.5% |
| CCOC(=O)c1cc(-c2ccc(F)cc2)n(CC(=O)NCc2ccccn2)c1C | 9.43% |
| CNC(=O)C(=O)N/N=C/c1ccccn1 | 12.7% |
| CCOC(=O)N1CCN(C(=O)CN(c2cccc(C)c2)S(=O)(=O)c2ccc(C)cc2)CC1 | -2.15% |
| N#CC1(NC(=O)COC(=O)c2ncc(Cl)c(Cl)c2Cl)CCCCC1 | 2.82% |

| SMILES | hERG current change (%, negative = inhibition) at 1uM |
| --- | --- |
| S=C(Nc1cccc(Cl)c1Cl)N1CCCC1 | 14.6% |
| Cc1ccc(C(=O)CC2(O)C(=O)N(C)c3ccc(Br)cc32)c(C)c1 (stereo not shown) | -4.04% |
| N#CSC(c1ccccc1)c1nc2ccccc2[nH]c1=O (stereo not shown) | 15.4% |
| Cc1cccc(N(C(=O)c2ccc(Cl)cc2)C2CS(=O)(=O)CC2OC(=O)c2ccc(Cl)cc2)c1 (stereo not shown) | 26.1% |
| O=C(NC(Cc1ccccc1)C(=O)N1CCN(c2ccccn2)CC1)c1ccco1 (stereo not shown) | 11.5% |
| O=C(NC1CCN(C(=S)NCc2ccco2)CC1)NC12CC3CC(CC(C3)C1)C2 | 12.5% |
| CC12CCCc3c(O)cc(=O)n(c31)-c1ccccc12 (stereo not shown) | 7.4% |
| CC1CC(c2ccccc2)n2nc(NC(=O)c3cccs3)nc2N1 (stereo not shown) | 18.3% |
| Cc1ccc(OCCOc2cccc3ccc(C)nc23)c([N+](=O)[O-])c1.O=C(O)C(=O)O | 10.8% |
| Br.OCCCn1c(-c2ccccc2)csc1=Nc1ccccc1 | 11.4% |
| CCOc1ccccc1CNCc1ccc(C(=O)O)cc1.Cl | 11.8% |
| Cc1ccsc1/C=C1\SC(N)=NC1=O | 12.7% |
| CC(C)(C)NC(=O)NC(=O)COC(=O)c1cc[n+]([O-])cc1 | 4.45% |
| COc1cccc(N2CCN(C(=O)C3CCCN(S(=O)(=O)c4ccc5c(c4)oc(=O)n5C)C3)CC2)c1 (stereo not shown) | 10.2% |
| CCOC(=O)c1c(NC(=O)Cn2nnc3ccccc32)sc2c1CCC(C)C2 (stereo not shown) | 0.405% |
| Cc1cc(C)c(NC(=O)CSc2nnc(CNC(=O)c3ccco3)o2)c(C)c1 | 11.7% |
| CC(=O)Nc1ccc(S(=O)(=O)Nc2ccc(-c3ccc4nnc(C)n4n3)cc2)cc1 | -3.52% |
| CCC(C)C(=O)Nc1nc(C)c(-c2csc(Nc3ccc(Cl)cc3)n2)s1 (stereo not shown) | 17% |
| COc1cccc2cc(-c3csc(CCn4nc(C)cc4C)n3)c(=O)oc12 | -0.97% |
| NC(=S)c1cnn2c(-c3cccc(C(F)(F)F)c3)ccnc12 | 11.8% |
| CCOC(=O)c1[nH]c(C)c(C(=O)OCc2ccc(C)cc2)c1C | 7.83% |
| Cc1cccc(C)c1-n1c(=O)n(Cc2ccccc2)c(=O)c2[nH]cnc21 | 9.95% |
